Test results published in patent publication US20250221953A1 (The University of Chicago, priority 2022, published 2025).

Tested on: PD-1^+ Jurkat T cells co-cultured with H596 (PD-L1^+) cells
Assay: 1st screen 1b: rescue of PD-L1/PD-1 dependent exhaustion of PD-1+ Jurkat T cells in co-culture (IL-2 ELISA)
Type: cell-based, human
Conditions: 1st screen 1b (Table 4): rescue of PD-L1/PD-1 dependent exhaustion of PD-1 expressing Jurkat T cells co-cultured with PD-L1-expressing H596 cells

B1: Carcinoembryonic Antigen (CEA) (protein, UniProt P06731 35-685, looked up)
Cell adhesion molecule CEACAM5: KLTIESTPFNVAEGKEVLLLVHNLPQHLFGYSWYKGERVDGNRQIIGYVIGTQQATPGPAYSGREIIYPNASLLIQNIIQNDTGFYTLHVIKSDLVNEEATGQFRVYPELPKPSISSNNSKPVEDKDAVAFTCEPETQDATYLWWVNNQSLPVSPRLQLSNGNRTLTLFNVTRNDTASYKCETQNPVSARRSDSVILNVLYGPDAPTISPLNTSYRSGENLNLSCHAASNPPAQYSWFVNGTFQQSTQELFIPNITVNNSGSYTCQAHNSDTGLNRTTVTTITVYAEPPKPFITSNNSNPVEDEDAVALTCEPEIQNTTYLWWVNNQSLPVSPRLQLSNDNRTLTLLSVTRNDVGPYECGIQNELSVDHSDPVILNVLYGPDDPTISPSYTYYRPGVNLSLSCHAASNPPAQYSWLIDGNIQQHTQELFISNITEKNSGLYTCQANNSASGHSRTTVKTITVSAELPKPSISSNNSKPVEDKDAVAFTCEPEAQNTTYLWWVNGQSLPVSPRLQLSNGNRTLTLFNVTRNDARAYVCGIQNSVSANRSDPVTLDVLYGPDTPIISPPDSSYLSGANLNLSCHSASNPSPQYSWRINGIPQQHTQVLFIAKITPNNNGTYACFVSNLATGRNNSIVKSITVSASGTSPGLSA
B1 was tested, and the “Relative changed percentage (%)” value was −0.3876%.

B2: LIPASE FROM PORCINE PANCREAS (protein, UniProt P00591 1-450, looked up)
Pancreatic triacylglycerol …: SEVCFPRLGCFSDDAPWAGIVQRPLKILPWSPKDVDTRFLLYTNQNQNNYQELVADPSTITNSNFRMDRKTRFIIHGFIDKGEEDWLSNICKNLFKVESVNCICVDWKGGSRTGYTQASQNIRIVGAEVAYFVEVLKSSLGYSPSNVHVIGHSLGSHAAGEAGRRTNGTIERITGLDPAEPCFQGTPELVRLDPSDAKFVDVIHTDAAPIIPNLGFGMSQTVGHLDFFPNGGKQMPGCQKNILSQIVDIDGIWEGTRDFVACNHLRSYKYYADSILNPDGFAGFPCDSYNVFTANKCFPCPSEGCPQMGHYADRFPGKTNGVSQVFYLNTGDASNFARWRYKVSVTLSGKKVTGHILVSLFGNEGNSRQYEIYKGTLQPDNTHSDEFDSDVEVGDLQKVKFIWYNNNVINPTLPRVGASKITVERNDGKVYDFCSQETVREEVLLTLNPC
With B2 the “Relative changed percentage (%)” value was −66.02%.
